Experimental data reported in PubChem BioAssay AID360 (National Center for Advancing Translational Sciences (NCATS), 2006).
In all, about 48,000 compounds went through this assay and about 550 (1.1%) were called active. Another 4% or so got no clear call; they are omitted. No stated cut-off is given here; in the data, active means potency below about 15 µM; inconclusive means mostly about 16 µM to 33 µM; inactive means weaker than that. Some of the results follow.

What follows are compounds tested against Lysosomal acid glucosylceramidase (Homo sapiens) (UniProt P04062) (assay: Glucocerebrosidase). Conditions: purified enzyme, resorufin glucoside fluorescence (screen aimed at inhibitors), 20 min; series mostly up to 77 µM.
Chain of UniProt P04062 (P04062 whole entry, looked up): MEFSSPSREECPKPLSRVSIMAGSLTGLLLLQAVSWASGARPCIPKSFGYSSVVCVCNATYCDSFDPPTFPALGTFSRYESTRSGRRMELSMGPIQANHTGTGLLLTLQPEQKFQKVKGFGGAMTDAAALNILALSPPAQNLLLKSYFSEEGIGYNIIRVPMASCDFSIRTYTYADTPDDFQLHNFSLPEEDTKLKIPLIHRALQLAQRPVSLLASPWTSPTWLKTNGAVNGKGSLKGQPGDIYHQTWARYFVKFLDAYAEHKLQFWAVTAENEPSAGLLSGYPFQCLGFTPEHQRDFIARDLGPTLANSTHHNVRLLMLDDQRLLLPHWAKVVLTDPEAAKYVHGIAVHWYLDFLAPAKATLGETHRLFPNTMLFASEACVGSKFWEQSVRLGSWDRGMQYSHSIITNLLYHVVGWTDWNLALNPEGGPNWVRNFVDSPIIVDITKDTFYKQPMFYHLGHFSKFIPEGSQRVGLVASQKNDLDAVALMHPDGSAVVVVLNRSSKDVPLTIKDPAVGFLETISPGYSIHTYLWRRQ
Method in brief: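 Compounds titrated against 0.2 nM normal enzyme, 30 uM resorufin beta-D-glucopyranoside substrate, citrate/phosphate buffer with taurocholate and tween-20, pH 5.9. Reaction ran 20 min at room temperature; fluorescence (Ex 548/Em 600) gave AC50.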
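Further: the screen sought inhibitors.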
Potency means the concentration at half of the fitted maximal effect.

| SMILES | Potency |
| --- | --- |
| Cc1cc(C)nc(SCC(=O)Nn2cnnc2)n1 | inactive: > 76.9 µM |
| CCOC(=O)c1oc2cccc(O)c2c1CN1CCOCC1 | inactive: > 76.9 µM |
| O=C(C1CC1)N1CCc2cc(Br)cc(S(=O)(=O)NCc3ccc4c(c3)OCO4)c21 | inactive: > 76.9 µM |
| COC(=O)c1ccc(NC(=O)CSc2nnc(-c3ccncc3)n2C)cc1 | inactive: > 76.9 µM |
| COc1ccccc1-c1cc(C(=O)NCc2ccc(Cl)cc2)no1 | inactive: > 76.9 µM |
| CCNc1nc(NC(C)C)nc(N(C#N)Cc2ccccc2)n1 | inactive: > 76.9 µM |
| COc1cccc(OC)c1OCCCc1c(C)n[nH]c1C | inactive: > 76.9 µM |
| O=C(Nn1c(-c2ccccc2)nc2ccccc2c1=O)c1ccco1 | inactive |
| O=C(Nc1nnc(COc2ccccc2)s1)c1ccco1 | inactive: > 76.9 µM |
| CC1=C(C)CC(C(=O)c2ccccc2)C(C(=O)O)C1 (configuration not stated) | inactive: > 76.9 µM |
| Cc1cc(O)cc(O)c1C(=O)Cc1cscn1 | inactive: > 76.9 µM |
| O=C(CSc1nncc2ccccc12)N1CCOCC1 | inactive: > 76.9 µM |
| CN(C)c1ccc(-c2noc(-c3ccccc3O)n2)cc1 | inactive: > 76.9 µM |
| CCOc1ccc(-n2c(-c3ccco3)n[nH]c2=S)cc1 | inactive: > 76.9 µM |
| O=C(NC1CCCC1)C1CCN(S(=O)(=O)c2cccc3cccnc23)CC1 | inactive: > 76.9 µM |
| CCN(CC)C(=O)c1cc2c(=O)n3cccc(C)c3nc2n1C | inactive: > 76.9 µM |
| COc1ccc(NC(=O)C2CC(=O)NC(Nc3cccc(C)c3)=N2)cc1 (configuration not stated) | inactive: > 76.9 µM |
| Cc1ccc(Nc2nc3nonc3[nH]c2=O)cc1C | inactive: > 76.9 µM |
| COc1cccc(N2C(=O)CC(N3CCN(S(=O)(=O)c4ccccc4)CC3)C2=O)c1 (configuration not stated) | inactive: > 76.9 µM |
| COc1ccc(Cc2nc(-c3ccc(Cl)cc3)no2)cc1 | inactive: > 76.9 µM |
| Cc1ccccc1CS(=O)(=O)Cc1ccc(C(=O)N2CCOCC2)o1 | inactive: > 76.9 µM |
| CCC(Oc1ccccc1)C(=O)Nc1ccccn1 (configuration not stated) | inactive: > 76.9 µM |
| COCCCNC(=O)C1CC(=O)N(C2CCCC2)C1 (configuration not stated) | inactive: > 76.9 µM |
| COc1ccccc1N1CCN(c2nc3ccccc3nc2C(C#N)C(=O)OC(C)C)CC1 (configuration not stated) | inactive: > 76.9 µM |

| SMILES | Potency |
| --- | --- |
| CCOC(=O)CSc1nnc(CNc2cccc(Cl)c2)n1-c1ccccc1 | inactive: > 76.9 µM |
| Cc1nc(NCC2CCCO2)c2nnn(Cc3ccccc3)c2n1 (configuration not stated) | inactive: > 76.9 µM |
| O=C(O)CC(CP(=O)(c1ccccc1)c1ccccc1)C(=O)O (configuration not stated) | inactive: > 76.9 µM |
| Cc1csc(NC(=O)c2cccc(S(=O)(=O)N3CCCCC3)c2)n1 | inactive: > 76.9 µM |
| Cc1sc2ncnc(Sc3nnnn3-c3ccccc3)c2c1C | active: 9.19 µM |
| O=C(NCC12CC3CC(CC(C3)C1)C2)c1nc2ncccn2n1 | inactive: > 76.9 µM |
| CC(=O)OCCNC(=O)c1cc2ccccc2oc1=O | inactive: > 76.9 µM |
| O=C(Nc1ccc2oc(-c3ccccc3)nc2c1)c1ccc2c(c1)OCCO2 | inactive: > 76.9 µM |
| O=C(O)c1ccccc1OCCOc1ccccc1C(=O)O | inactive: > 76.9 µM |
| CC(C)(C)OC(=O)N1CCCC1C(=O)NCCc1ccccc1 (configuration not stated) | inactive: > 76.9 µM |
| Cc1oc(-c2ccc(Cl)cc2)nc1CN1CCCC(C(=O)NCCCN2CCOCC2)C1 (configuration not stated) | inactive: > 76.9 µM |
| Cc1cc(C(=O)N2CCN(c3ncccn3)CC2)cs1 | inactive: > 76.9 µM |
| COc1cc(-c2nnc(-c3cccs3)o2)cc(OC)c1OC | inactive: > 76.9 µM |
| CC(=O)C1=C(O)C(=O)N(CCc2c[nH]c3ccccc23)C1c1cccc(O)c1 (configuration not stated) | inactive: > 76.9 µM |
| COC(=O)c1cccc(Cn2nnc3ccccc3c2=O)c1 | inactive: > 76.9 µM |
| COc1ccc(CCNC(=O)Cn2c(-c3nonc3N)nc3ccccc32)cc1OC | inactive: > 76.9 µM |
| CCCCOC(=O)C1[C@H]2C(=O)N(c3ccccc3CC)C[C@]23C=C[C@H]1O3 (some centres not stated) | inactive: > 76.9 µM |
| Fc1ccccc1N1CCN(Cc2nc(-c3ccccc3)no2)CC1 | inactive: > 76.9 µM |
| CCOC(=O)Cc1nnc(NC(=O)CC)s1 | inactive: > 76.9 µM |
| CC(=O)c1ccc(N2CCN(C(=O)c3ccc4c(=O)n(-c5ccccc5)c(=O)[nH]c4c3)CC2)cc1 | inactive: > 76.9 µM |
| CCC(=O)c1cccc2c1N=CC1=C(CC(C)(C)CC1=O)N2 | inactive: > 76.9 µM |
| CCC(=O)Nc1nc(C)cc(SCC(=O)OC)n1 | inactive: > 76.9 µM |
| CN(C)S(=O)(=O)N(CC(=O)NCc1ccccc1)c1ccccc1 | inactive: > 76.9 µM |
